Measured values reported in PubChem BioAssay AID624417 (National Center for Advancing Translational Sciences (NCATS), 2012).
In all, about 410,000 compounds went through this assay and about 6,400 (1.6%) were called active. The inconclusive results got no clear call from the source; some entries with a clear call stand among them for comparison. Calls follow the shape of the dose curve; as a rule, active = well fitted inhibition curve with a large enough effect; inconclusive = small, poorly fitted or top-dose-only effect; inactive = no such curve, though single readings can be large or run the other way. Where the call is inconclusive, the potency comes from a doubtful curve fit.

molecular target: Glucagon-like peptide 1 receptor (Homo sapiens) (UniProt P43220); experiment: qHTS of GLP-1 Receptor Inverse Agonists (Inhibition Mode); conditions: HEK293 GLP-1R CRE-luciferase, luminescence, 24 h, GLP-1R form is constitutively active; activity change, negative = inhibition: at 38.3 µM (top of the series) unless noted; also: nearly all actives have a fitted effect of over 55% in size
UniProt P43220, sequence (P43220 whole entry, looked up): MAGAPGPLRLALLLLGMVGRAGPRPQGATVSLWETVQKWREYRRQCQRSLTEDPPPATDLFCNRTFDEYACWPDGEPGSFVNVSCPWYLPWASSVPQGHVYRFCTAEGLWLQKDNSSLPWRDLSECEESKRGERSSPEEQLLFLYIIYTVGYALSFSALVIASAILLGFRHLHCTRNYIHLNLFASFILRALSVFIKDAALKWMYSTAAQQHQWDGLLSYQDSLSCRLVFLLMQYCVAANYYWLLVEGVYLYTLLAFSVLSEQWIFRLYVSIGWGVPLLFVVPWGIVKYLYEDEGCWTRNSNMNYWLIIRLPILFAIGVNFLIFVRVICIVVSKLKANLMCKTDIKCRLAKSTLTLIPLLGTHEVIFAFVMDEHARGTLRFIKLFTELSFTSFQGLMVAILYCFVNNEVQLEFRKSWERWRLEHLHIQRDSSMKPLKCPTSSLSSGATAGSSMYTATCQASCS
Method in brief: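 Cells are plated, allowed 12 hours at 37 deg C, then treated with compounds for 24 hr before luciferase detection reagent is added and luminescence is read after 12 min at room temperature. The HEK293 line carries constitutively active GLP-1R with a cAMP-responsive reporter.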
% is scaled to controls: 0 for no effect and ±100 for the full control effect; potency is read from the fitted curve at half-maximal effect; tags tell the direction and shape of the fitted curve.

Potency, inconclusive:
CCOC(=O)c1ccc(N2C(=O)c3n[nH]c(C)c3C2c2cccc(Br)c2)cc1 (stereo not given) 10 µM [inhibitor, partial curve, poor fit]
COC(=O)[C@]12CCCCC=C1N(Cc1ccccc1)C(=O)[C@H](CC(=O)NCc1ccc(C)o1)C2 28.2 µM [inhibitor, single point]
Cc1cc2oc(=O)sc2cc1NS(=O)(=O)c1cccc2cccnc12 28.2 µM [inhibitor, single point]
CCCCCCCNC(=O)C1(CC2CC(c3ccc(Cl)cc3)=NO2)CCN(C(=O)CCCCCBr)CC1 (stereo not given) 14.1 µM [inhibitor, single point]
O=[N+]([O-])c1ccc(N/N=C/c2cccnc2)cc1 7.94 µM [inhibitor, single point]
Cc1cccc(N2C(N)=C(C#N)C(C#N)(C#N)C2c2ccccc2)c1 (stereo not given) 28.2 µM [inhibitor, single point]
CC(=O)N1c2ccccc2C(C)(c2ccccc2)CC1(C)C (stereo not given) 10 µM [inhibitor, partial curve, poor fit]
COC(C(=O)Nc1ccc(S(=O)(=O)Nc2ccc(C)c(C)c2)cc1)c1ccccc1 (stereo not given) 17.8 µM [inhibitor, partial curve, poor fit]
COc1ccc(C(O)c2ncc(-c3cccc(OCc4ccccc4)c3)[nH]2)cc1F (stereo not given) 28.2 µM [inhibitor, single point]
O=C(NC(=S)Nc1ccc2c(c1)OCCO2)c1ccc(F)cc1Cl 14.1 µM [inhibitor, single point]
O=C(NC1CCCc2ccccc21)c1ccc(F)cc1F (stereo not given) 28.2 µM [inhibitor, single point]
Cc1ccccc1Nc1nc(N)nc(CCl)n1 28.2 µM [inhibitor, single point]
CCOC(=O)C1(Cc2ccccc2)CCN(C2Cc3ccccc3C2)CC1 10 µM [inhibitor, partial curve, poor fit]
O=C(NC(=S)Nc1ccc(Cl)cc1Cl)C1CC1 28.2 µM [inhibitor, single point]
O=C(CN1CCN(Cc2ccccc2)CC1)Nc1cccc(Cl)c1 10 µM [inhibitor, partial curve, poor fit]
Cc1ccc(S(=O)(=O)Nc2ccccc2/C=N/c2nc3ccccc3n2C)cc1 1.26 µM [inhibitor, full curve, poor fit]
O=c1c2ccccc2c(=O)n(-c2ccccc2)n1-c1ccccc1 11.2 µM [inhibitor, single point]
O=C(c1ccc2c(c1)OCCO2)N(Cc1cccnc1)c1nc2c(Cl)cccc2s1 14.1 µM [inhibitor, single point]
COc1cccc(Cn2c(CNS(=O)(=O)c3ccc(F)c(Cl)c3)nc3cccnc32)c1 31.6 µM [inhibitor, single point]
Cc1ccccc1N/N=C/c1c(C)nc2ccccn12 31.6 µM [inhibitor, single point]
CCCc1cc(=O)oc2cc(OCC(=O)N3CCN(C(=O)C4COc5ccccc5O4)CC3)ccc12 (stereo not given) 8.91 µM [inhibitor, partial curve, poor fit]
O=C(Cc1csc(NC(=O)Nc2ccc(Cl)cc2)n1)NCc1cccnc1 10 µM [inhibitor, partial curve]
Nc1nc(N2CCN(C/C=C/c3ccccc3)CC2)nc2ccccc12 8.91 µM [inhibitor, partial curve, poor fit]
CC(C)C(=O)N1CCN(c2nc(-c3ccccc3)c3c(c2C#N)CC(C)(C)OC3)CC1 20 µM [inhibitor, single point]
CC(=O)Nc1cccc(C(=O)/C=C/c2ccc(C)cc2)c1 15.8 µM [inhibitor, single point]
Cc1ccc(-c2nc(CS(=O)(=O)CC(=O)N3CCc4ccccc4C3)c(C)o2)cc1 20 µM [inhibitor, partial curve, poor fit]
CC1CCC2C(=O)N(c3ccc(NC4CCCCC4)c([N+](=O)[O-])c3)C(=O)C2C1 (stereo not given) 2.82 µM [inhibitor, full curve, poor fit]
CC(C)OCCCN1CC(=O)N2C(c3cccc([N+](=O)[O-])c3)c3[nH]c4ccccc4c3C[C@H]2C1=O (stereo not given in full) 7.94 µM [inhibitor, partial curve, poor fit]
CC1CCN(C2CCN(S(=O)(=O)c3ccc(C(F)(F)F)cc3)CC2)CC1 10 µM [inhibitor, single point]
CCOC(=O)[C@]12CCCC=C1N(Cc1ccc3c(c1)OCO3)C(=O)[C@H](CC(=O)NCc1cccc3ccccc13)C2 14.1 µM [inhibitor, partial curve, poor fit]

Activity change, negative = inhibition, inactive:
CCOc1ccccc1CNC(=O)c1cc(-c2ccc(Cl)s2)nc2ccccc12 -1.75%
O=C(CNC(=O)c1ccco1)OCC(=O)c1ccc([N+](=O)[O-])cc1 1.49%
Cc1ccccc1NC(=O)c1ccc(F)c(S(=O)(=O)NCC2CCCO2)c1 (stereo not given) -11.7%
CCc1ccc(NC(=O)Cn2c(=O)n(CCC(=O)N3CCc4ccccc4C3)c(=O)c3ccccc32)cc1 8.25%
CCOC(=O)Cc1csc(NC(=O)c2ccc3ccccc3n2)n1 -3.7%
O=C(CSc1nc2scc(-c3ccco3)c2c(=O)n1-c1ccccc1)N1CCOCC1 0%
O=C(COc1ccccc1)NCCc1csc(-c2ccc(Cl)cc2)n1 -24.3%
CCc1nn2c(=O)cc(COc3ccc(/C=C(\C#N)C(=O)Nc4ccc(F)cc4)cc3OC)nc2s1 9.73%
O=C(NNC(=O)C1CCCO1)c1ccc(F)cc1 (stereo not given) 1.23%
COc1ccc(-c2nnc(SCC(=O)Nc3cccc(C(F)(F)F)c3)nc2-c2ccc(OC)cc2)cc1 10.7%
